Some of the results follow.
Experiments:
Experiment in all cases: glycan array binding signal (z-score within array); higher = stronger binding
Conditions in all cases: glycan notation: IUPAC condensed, linker removed
[1] = target: GalNAc(b1-4)GlcNAc(b1-2)Man
Procedure, shortened: (§1)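 Glycan array data came from 3228 arrays in the Consortium for Functional Glycomics database, and only arrays with an available protein sequence were kept. Glycan names were put into IUPAC-condensed notation, and columns mapping to the same glycan were averaged. The binding signal is a within-array Z-score, averaged across arrays of one protein sequence run at different concentrations or buffers and across linkers. A negative Z-score can be read as non-binding.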

[2] = target: GalNAc(b1-4)GlcNAc(b1-2)Man(a1-3)[GalNAc(b1-4)GlcNAc(b1-2)Man(a1-6)]Man(b1-4)GlcNAc(b1-4)GlcNAc
Procedure, shortened: as §1

[3] = target: GalNAc(b1-4)GlcNAc(b1-3)GalNAc(b1-4)GlcNAc
Procedure, shortened: as §1

[4] = target: GalNAc(b1-4)GlcNAc6S
Procedure, shortened: as §1

[5] = target: GalNAc(b1-6)GalNAc
Procedure, shortened: as §1

[6] = target: GalNAc3S(b1-4)GlcNAc
Procedure, shortened: as §1

[7] = target: GalNAc3S(b1-4)GlcNAc3S
Procedure, shortened: as §1

[8] = target: GalNAc3S(b1-4)[Fuc(a1-3)]GlcNAc
Procedure, shortened: as §1

[9] = target: GalNAc4S6S(b1-4)GlcNAc
Procedure, shortened: as §1

[10] = target: GalNAc6S(b1-4)GlcNAc
Procedure, shortened: as §1

[11] = target: Glc(a1-4)Glc
Procedure, shortened: as §1

[12] = target: Glc(a1-4)Glc(a1-4)Glc(a1-4)Glc
Procedure, shortened: as §1

[13] = target: Glc(a1-6)Glc(a1-6)Glc
Procedure, shortened: as §1

[14] = target: Glc(a1-6)Glc(a1-6)Glc(a1-6)Glc
Procedure, shortened: as §1

[15] = target: Glc(b1-4)Glc
Procedure, shortened: as §1

[16] = target: Glc(b1-6)Glc
Procedure, shortened: as §1

[17] = target: GlcA(b1-3)Gal
Procedure, shortened: as §1

[18] = target: GlcA(b1-3)GlcNAc
Procedure, shortened: as §1

[19] = target: GlcA(b1-6)Gal
Procedure, shortened: as §1

[20] = target: GlcA3S(b1-3)Gal(b1-4)GlcNAc(b1-2)Man
Procedure, shortened: as §1

[21] = target: GlcA3S(b1-3)Gal(b1-4)GlcNAc(b1-3)Gal(b1-4)Glc
Procedure, shortened: as §1

[22] = target: GlcNAc(a1-3)Gal(b1-4)GlcNAc
Procedure, shortened: as §1

[23] = target: GlcNAc(a1-4)Gal(b1-3)GlcNAc
Procedure, shortened: as §1

[24] = target: GlcNAc(a1-4)Gal(b1-4)GalNAc
Procedure, shortened: as §1

[25] = target: GlcNAc(a1-4)Gal(b1-4)GlcNAc
Procedure, shortened: as §1

[26] = target: GlcNAc(a1-4)Gal(b1-4)GlcNAc(b1-3)Gal(b1-4)Glc
Procedure, shortened: as §1

[27] = target: GlcNAc(a1-4)Gal(b1-4)GlcNAc(b1-3)Gal(b1-4)GlcNAc
Procedure, shortened: as §1

[28] = target: GlcNAc(a1-4)Gal(b1-4)GlcNAc(b1-3)Gal(b1-4)GlcNAc(b1-3)Gal(b1-4)GlcNAc
Procedure, shortened: as §1

[29] = target: GlcNAc(a1-4)Gal(b1-4)GlcNAc(b1-3)Gal(b1-4)[Fuc(a1-3)]GlcNAc(b1-3)Gal(b1-4)[Fuc(a1-3)]GlcNAc
Procedure, shortened: as §1

[30] = target: GlcNAc(a1-6)Gal(b1-4)GlcNAc
Procedure, shortened: as §1

[31] = target: GlcNAc(b1-2)Gal(b1-3)GalNAc
Procedure, shortened: as §1

[32] = target: GlcNAc(b1-2)Man(a1-3)[GlcNAc(b1-2)Man(a1-6)]Man(b1-4)GlcNAc(b1-4)GlcNAc
Procedure, shortened: as §1

[33] = target: GlcNAc(b1-2)Man(a1-3)[GlcNAc(b1-2)Man(a1-6)]Man(b1-4)GlcNAc(b1-4)[Fuc(a1-6)]GlcNAc
Procedure, shortened: as §1

[34] = target: GlcNAc(b1-2)Man(a1-3)[GlcNAc(b1-4)][GlcNAc(b1-2)Man(a1-6)]Man(b1-4)GlcNAc(b1-4)GlcNAc
Procedure, shortened: as §1

[35] = target: GlcNAc(b1-2)Man(a1-3)[GlcNAc(b1-4)][GlcNAc(b1-2)Man(a1-6)]Man(b1-4)GlcNAc(b1-4)[Fuc(a1-6)]GlcNAc
Procedure, shortened: as §1

[36] = target: GlcNAc(b1-2)[GlcNAc(b1-4)]Man(a1-3)[GlcNAc(b1-2)Man(a1-6)]Man(b1-4)GlcNAc(b1-4)GlcNAc
Procedure, shortened: as §1

[37] = target: GlcNAc(b1-2)[GlcNAc(b1-4)]Man(a1-3)[GlcNAc(b1-4)][GlcNAc(b1-2)Man(a1-6)]Man(b1-4)GlcNAc(b1-4)GlcNAc
Procedure, shortened: as §1

[38] = target: GlcNAc(b1-2)[GlcNAc(b1-4)]Man(a1-3)[GlcNAc(b1-4)][GlcNAc(b1-2)[GlcNAc(b1-6)]Man(a1-6)]Man(b1-4)GlcNAc(b1-4)GlcNAc
Procedure, shortened: as §1

[39] = target: GlcNAc(b1-2)[GlcNAc(b1-4)]Man(a1-3)[GlcNAc(b1-4)][GlcNAc(b1-2)[GlcNAc(b1-6)]Man(a1-6)]Man(b1-4)GlcNAc(b1-4)[Fuc(a1-6)]GlcNAc
Procedure, shortened: as §1

[40] = target: GlcNAc(b1-2)[GlcNAc(b1-6)]Man(a1-6)[GlcNAc(b1-2)Man(a1-3)]Man(b1-4)GlcNAc(b1-4)GlcNAc
Procedure, shortened: as §1

[41] = target: GlcNAc(b1-2)[GlcNAc(b1-6)]Man(a1-6)[GlcNAc(b1-2)Man(a1-3)]Man(b1-4)GlcNAc(b1-4)[Fuc(a1-6)]GlcNAc
Procedure, shortened: as §1

[42] = target: GlcNAc(b1-2)[GlcNAc(b1-6)]Man(a1-6)[GlcNAc(b1-4)][GlcNAc(b1-2)Man(a1-3)]Man(b1-4)GlcNAc(b1-4)GlcNAc
Procedure, shortened: as §1

[43] = target: GlcNAc(b1-3)Fuc
Procedure, shortened: as §1

[44] = target: GlcNAc(b1-3)Gal
Procedure, shortened: as §1

[45] = target: GlcNAc(b1-3)Gal(b1-3)GalNAc
Procedure, shortened: as §1

B1: PfulAvr4 2 (Pseudocercospora fuligena) (protein)
chain: HHHHHHDYKDDDDKAKPIKPFACPPKDFTTTKCQGPVDCLYANPLSCLGYIQCVCDDDACSTATPYAKSCPTGLAWVEKLKRCDGIKKSACPKKMYEGS
glycan array binding signal (z-score) [1]: -0.384
glycan array binding signal (z-score) [2]: -0.129
glycan array binding signal (z-score) [3]: -0.272
glycan array binding signal (z-score) [4]: -0.205
glycan array binding signal (z-score) [5]: -0.367
glycan array binding signal (z-score) [6]: -0.203
glycan array binding signal (z-score) [7]: -0.461
glycan array binding signal (z-score) [8]: -0.403
glycan array binding signal (z-score) [9]: -0.341
glycan array binding signal (z-score) [10]: -0.276
glycan array binding signal (z-score) [11]: 0.168
glycan array binding signal (z-score) [12]: -0.123
glycan array binding signal (z-score) [13]: 0.073
glycan array binding signal (z-score) [14]: 0.132
glycan array binding signal (z-score) [15]: 0.518
glycan array binding signal (z-score) [16]: 0.175
glycan array binding signal (z-score) [17]: -0.192
glycan array binding signal (z-score) [18]: -0.017
glycan array binding signal (z-score) [19]: -0.241
glycan array binding signal (z-score) [20]: -0.283
glycan array binding signal (z-score) [21]: -0.468
glycan array binding signal (z-score) [22]: -0.292
glycan array binding signal (z-score) [23]: -0.417
glycan array binding signal (z-score) [24]: -0.388
glycan array binding signal (z-score) [25]: -0.432
glycan array binding signal (z-score) [26]: -0.369
glycan array binding signal (z-score) [27]: -0.149
glycan array binding signal (z-score) [28]: -0.366
glycan array binding signal (z-score) [29]: -0.234
glycan array binding signal (z-score) [30]: -0.377
glycan array binding signal (z-score) [31]: -0.258
glycan array binding signal (z-score) [32]: -0.208
glycan array binding signal (z-score) [33]: -0.107
glycan array binding signal (z-score) [34]: -0.252
glycan array binding signal (z-score) [35]: -0.341
glycan array binding signal (z-score) [36]: -0.282
glycan array binding signal (z-score) [37]: -0.195
glycan array binding signal (z-score) [38]: -0.386
glycan array binding signal (z-score) [39]: -0.352
glycan array binding signal (z-score) [40]: -0.231
glycan array binding signal (z-score) [41]: -0.061
glycan array binding signal (z-score) [42]: -0.281
glycan array binding signal (z-score) [43]: -0.284
glycan array binding signal (z-score) [44]: -0.44
glycan array binding signal (z-score) [45]: -0.214
